From PubChem BioAssay AID686979 (National Center for Advancing Translational Sciences (NCATS), 2013)
In all, about 420,000 compounds went through this assay and about 50,000 (12%) were called active. The inconclusive results got no clear call from the source; some entries with a clear call stand among them for comparison. The call rests on the fitted dose curve; in most records, active means well fitted inhibition curve with a large enough effect; inconclusive means small, poorly fitted or top-dose-only effect; inactive means flat fitted curve, though single readings scatter. Potencies of inconclusive entries are left out as doubtful fits.

Assay: qHTS for Inhibitors of human tyrosyl-DNA phosphodiesterase 1 (TDP1): qHTS in cells in presence of CPT; further: nearly all actives have a fitted effect of over 55% in size
Settings: chicken DT40 Tdp1-/-;hTDP1 cells + 20 nM CPT, ATP luminescence, 48 h; series mostly up to 46.2 µM
Procedure, shortened: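 Chicken DT40 Tdp1-/- cells complemented with human TDP1, 400 cells/well, exposed to compounds plus 20 nM camptothecin for at least 48 h at 37 C; viability read as ATP content by CellTiter-Glo luminescence.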
Potency means the concentration at half of the fitted maximal effect; tags describe the fitted curve by direction and shape.

SMILES | Potency
COc1ccc(C2=NN(C(=O)c3ccco3)C(c3ccco3)C2)cc1OC (centres undefined) | active: 29.1 µM
CC(C)Oc1ccc(C(=O)NCC(c2ccc(N(C)C)cc2)N2CCc3ccccc32)cc1 (centres undefined) | active: 9.2 µM
O=C(Nc1cc(S(=O)(=O)N2CCOCC2)ccc1O)c1ccc(NS(=O)(=O)c2ccc(Cl)s2)cc1 | inactive
CCc1nc2c(OCCn3cccc3)cccn2c1N(C)C(=O)c1ccc(C)cc1 | inconclusive [inhibitor, single point]
O=C(NCc1cccnc1)c1ccc([N+](=O)[O-])o1 | inconclusive [inhibitor, single point]
COc1ccc(NS(=O)(=O)c2ccc(C(=O)N(C)Cc3ccc(C)o3)cc2)cc1 | active: 13 µM
CCCCCC(=O)Nc1cc(N(C)C)nc2ccccc12 | inconclusive [inhibitor, partial curve, poor fit]
Fc1ccc(-n2cc(-c3ccccc3)c3c(=S)nc[nH]c32)cc1 | inconclusive [inhibitor, single point]
CC(C)(C)c1ccc(C(=O)c2c[nH]c(C(=O)NCc3ccco3)c2)cc1 | inactive
CNC(=S)N/N=C/c1cc(C)n(-c2ccc(Cl)c(Cl)c2)c1C | active: 23.1 µM
CCn1c(=O)c2sccc2n2c(CCC(=O)Nc3ccc(F)cc3)nnc12 | inconclusive [inhibitor, single point]
Cc1ccc(C)c(N2CCN(C(=O)c3ccc(Cn4c(=O)[nH]c5ccccc5c4=O)cc3)CC2)c1 | inconclusive [inhibitor, single point]
CC1CCN(CCOc2ccc(C(=O)c3ccccc3)cc2)CC1 | active: 16.4 µM
Cc1ccc2c(C)c(C(=O)N(Cc3ccc(N(C)C)cc3)Cc3ccco3)oc2c1C | inconclusive [inhibitor, single point]
Cc1nnc(SCC(=O)N2CCN(Cc3ccccc3)CC2)s1 | inactive
O=C(NCCO)c1ccc2c3n(nc2c1)-c1ccc(Cl)cc1CO3 | inconclusive [inhibitor, single point]
C=CCSc1ncccc1C(=O)NCc1ccc(C)cc1 | inconclusive [inhibitor, single point]
CCC[C@@H](CN1CCC[C@H]1CN1C(N)=NC[C@@H]1Cc1ccccc1)N1C[C@@H](Cc2ccccc2)N(CCCC2CCCC2)C1=N | inconclusive [inhibitor, single point]
Cc1ccc(/C=C/C(=O)NCc2ccc3c(c2)OCO3)o1 | inconclusive [inhibitor, full curve, poor fit]
Cc1cccn2c(=O)c3cc(C(=O)NC4CCCCC4)c(=N)n(Cc4ccc(F)cc4)c3nc12 | active: 8.2 µM
O=C(Nc1ccc(Br)cc1)c1cc(S(=O)(=O)NC2CCCC2)ccc1F | active: 23.1 µM
CC(C)Oc1ccc(S(=O)(=O)N2CCCCC2)cc1NC(=O)C1CSC2(C)CCC(=O)N12 (centres undefined) | inconclusive [inhibitor, single point]

SMILES | Potency
O=C(Cn1nc2ccccc2n1)N/N=C/c1cc(Cl)cc([N+](=O)[O-])c1O | inconclusive [inhibitor, single point]
Fc1ccccc1COc1ccc(-c2nnn(Cc3ccccc3F)n2)cc1 | inconclusive [inhibitor, partial curve, poor fit]
CCOC(=O)C1(Cc2cccc(Cl)c2)CCCN(C(=O)c2cc(C)on2)C1 (centres undefined) | active: 18.4 µM
Cc1ccccc1CN1C(=O)CSCC1(C)C(=O)Nc1ccc2c(c1)OCCO2 (centres undefined) | inconclusive [inhibitor, single point]
C=CCn1c(SCC(=O)Nc2nc3ccccc3s2)nnc1-c1ccccc1O | inactive
CNC(=O)N(O)C1N(/N=C/c2ccc(N(C)C)cc2)C(=S)SC1(C)C (centres undefined) | inactive
Cc1ccc2c(c1)cc1c(=O)n(Cc3ccccc3Cl)nc(C)n12 | inactive
CCCCCCCCN1C(=O)[C@H](CC(=O)NCc2cccc3ccccc23)C[C@@]2(C(=O)OCC)CCC=C12 | inconclusive [inhibitor, single point]
O=C(Oc1ccccc1)N1CCC[C@@]2(CCN(c3ccccc3)C2)C1 | inconclusive [inhibitor, single point]
O=C(N/N=C1\CC(c2ccccc2)Oc2ccccc21)c1cccnc1 (centres undefined) | inconclusive [inhibitor, single point]
COc1cc2cc(CN(Cc3cccnc3)C(=O)NCc3ccccc3)c(=O)[nH]c2cc1OC | inconclusive [inhibitor, single point]
Cc1ccc(C)c(SCC(=O)OC/C(O)=C(\C#N)c2nc3ccccc3[nH]2)c1 | inconclusive [inhibitor, single point]
COc1ccc(-c2onc(C)c2C)cc1S(=O)(=O)NCCc1ccccc1 | active: 20.6 µM
c1ccc(-c2cccc(N3CCCC4(CCNCC4)C3)c2)cc1 | active: 11.6 µM
Cc1cc2nc(N3C(=O)CNC3=S)sc2cc1C | inconclusive [inhibitor, single point]
C#CCN(CC=C)C(=O)c1ccc(OC2CCN(S(=O)(=O)N(C)C)CC2)cc1 | inconclusive [inhibitor, single point]
O=[N+]([O-])c1ccccc1C=NNc1ccccc1 | inconclusive [inhibitor, single point]
Oc1c(C(c2ccccc2)N2CCCC2)sc2nc(-c3ccco3)nn12 (centres undefined) | inactive
CCNC(=O)C1(C)CCCCN1Cc1ccc(C#N)cc1 (centres undefined) | inconclusive [inhibitor, single point]
Cn1c(NC(=O)c2ccco2)c(-c2ccccc2)c(=O)c2ccccc21 | inconclusive [inhibitor, single point]
O=C(Nc1ccon1)c1cc2ccccc2oc1=O | inactive
O=C(Nc1cccc(S(=O)(=O)N2CCCCC2)c1)C1CC(=O)N(c2ccc3c(c2)OCCO3)C1 (centres undefined) | inconclusive [inhibitor, single point]
